Measured values: the supplement of paper PMC3334620
Over roughly 33,000 sequences, “E-score (-0.5 to 0.5)” has its median near -0.012; the highest 2% begin near 0.29. Some of the results follow.

What follows are sequences tested against T1, Ybr033w (UniProt P38073) (assay: PBM E-score (8-mer binding enrichment) (E-score (-0.5 to 0.5)); higher = stronger / more preferred TF binding; most listed sequences are background and not binding sites). Conditions: protein concentration: 200 nM; construct: GST-full length.
T1 sequence: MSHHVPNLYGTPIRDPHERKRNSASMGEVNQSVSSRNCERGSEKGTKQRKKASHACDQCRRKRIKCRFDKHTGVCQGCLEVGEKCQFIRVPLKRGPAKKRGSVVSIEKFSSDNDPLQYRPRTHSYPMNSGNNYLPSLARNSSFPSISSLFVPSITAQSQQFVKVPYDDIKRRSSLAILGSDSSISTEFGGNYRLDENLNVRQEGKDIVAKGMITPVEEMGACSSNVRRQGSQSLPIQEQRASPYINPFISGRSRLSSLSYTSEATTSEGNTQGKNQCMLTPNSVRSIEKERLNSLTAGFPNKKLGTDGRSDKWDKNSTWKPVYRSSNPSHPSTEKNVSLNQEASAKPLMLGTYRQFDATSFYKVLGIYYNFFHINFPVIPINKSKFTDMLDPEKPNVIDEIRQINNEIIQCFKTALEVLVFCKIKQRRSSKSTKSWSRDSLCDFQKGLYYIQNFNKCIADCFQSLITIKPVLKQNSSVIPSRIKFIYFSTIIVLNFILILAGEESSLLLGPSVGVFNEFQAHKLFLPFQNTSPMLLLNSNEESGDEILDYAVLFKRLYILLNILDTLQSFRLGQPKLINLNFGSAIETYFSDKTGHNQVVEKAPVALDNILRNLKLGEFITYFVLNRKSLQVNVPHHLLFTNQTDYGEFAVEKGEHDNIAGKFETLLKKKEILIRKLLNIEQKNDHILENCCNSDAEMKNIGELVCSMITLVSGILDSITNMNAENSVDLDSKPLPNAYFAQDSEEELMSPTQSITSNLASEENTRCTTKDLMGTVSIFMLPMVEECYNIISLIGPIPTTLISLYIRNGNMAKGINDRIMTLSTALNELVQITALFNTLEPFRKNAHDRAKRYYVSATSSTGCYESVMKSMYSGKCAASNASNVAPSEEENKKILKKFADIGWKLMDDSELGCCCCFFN
Procedure, shortened: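 Universal all-10-mer Agilent arrays, fresh or stripped once, were converted to double-stranded form by primer extension. GST-tagged yeast transcription factors from PURExpress in vitro transcription/translation, full-length or DNA-binding domain only, were applied at about 100-200 nM and detected with fluorescent anti-GST. After masliner normalisation, the Universal PBM Analysis Suite scored each ungapped eight-base word together with its reverse complement by E-score.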

Sequence | PBM E-score
ACATCGTC | -0.0688
AGTAAACG | 0.0923
CAAATCAC | -0.035
AGATGCCT | 0.0174
CGATGAAA | -0.00643
CATATGGG | -0.0459
GACACCCC | -0.269
AGGACAGC | -0.0246
CACTAACC | 0.0389
ACAAGTGA | 0.0353
CGAAGTGA | -0.0303
AAGACGAT | 0.0718
ATGAGCAA | 0.161
GCGTACTA | -0.0448
AGCGCGCC | -0.186
AGGGACCA | -0.251
AGTCTACC | -0.035
ACTGTTAG | -0.00766
GCTCCGCC | -0.0466
GCACGAGC | -0.195
ACGTTCGG | -0.0866
AGAAACAT | 0.2
GCATAGAC | -0.156
CTCAACTC | 0.0995
AGAAACTC | 0.179

Sequence | PBM E-score
CCGGTCAC | -0.258
CCAACGGA | -0.233
ACCATCGG | -0.118
AGCGCACT | -0.155
ATACAGGA | -0.0061
GCTACTCA | 0.149
AACGATCT | 0.00325
ACCGCGTA | -0.0911
ATTCAGCA | 0.114
CTTTTCAA | 0.22
CAAAGAGC | -0.165
GGAGCCCC | -0.358
GAAAATAC | 0.252
TGCCCCAA | -0.0984
CGTAGACA | -0.208
GAGGTTAC | -0.0615
CCTTGTGC | -0.278
CGCCGAGC | -0.0974
CCGTAAAG | 0.0143
AAATCATG | 0.167
CTGGTGGA | -0.0887
GGCGCCCA | -0.0169
CTAAATGC | 0.0943
GGGGGAAA | -0.124
AAAGGGAA | 0.0211

Sequence | PBM E-score
CAGTATAC | 0.0935
AACGAATG | 0.16
CGGGGTTC | -0.137
CAAATACG | -0.0196
ATCCGAGG | 0.0509
AGGTTGCA | 0.112
CAGGCCAG | -0.142
CCAGGAGG | -0.024
AAATCGAA | 0.0838
CAGACAAG | -0.0449
GATGGTTA | -0.0287
ATTAGAAG | 0.123
CAACAGAA | 0.0731
AAAGGTAC | -0.00741
AATCGATG | 0.217
CATGTCAC | 0.0223
ATACTGAG | 0.267
TCCCCCGA | -0.23
CCAAAATA | 0.182
ATGCGAAG | 0.0252
AACATGCC | -0.008
ATTACCAA | 0.116
CCGCTACA | -0.113
GCAAGTCC | -0.1
CTCGGGCA | 0.0151

Sequence | PBM E-score
ATGACTCC | 0.0591
CGAGCCGA | -0.0277
AGACCATA | 0.0684
CTTAGTGA | -0.00553
GGTACCCA | -0.221
AAGGGCCG | -0.287
AGCAGCCA | -0.0655
TAATGTAA | 0.239
AGAAACCC | 0.0994
CCCTGAAG | -0.268
GACTTGAA | -0.00018
CTCTCCTC | -0.269
ACCCGCGG | -0.055
CGTTCTAC | 0.00885
AGAAAGCC | -0.0566
AAAGGGAT | 0.17
AGCCTCGA | -0.185
GCTTACAA | 0.0503
AGTCACCG | -0.104
TACCCGCA | 0.232
CAATGGAG | -0.0219
CAAGAAAA | 0.219
CGGTGGAC | -0.22
CCTCCTCC | -0.152
GATGTGAC | -0.183

Sequence | PBM E-score
GATCGATC | -0.205
CACTCGAG | -0.0246
GACATGGA | 0.112
CCTGGAGA | -0.0423
CCCTGGGA | -0.336
CAACTACA | 0.213
ATGTACCA | 0.0232
GCCAGCCA | -0.265
CGTGGTAG | -0.0476
AAATCCGA | 0.12
GTGACCTA | -0.0959
CGCTGATC | -0.00384
CCCCATAC | -0.187
CCTTGTAC | 0.0941
AGTTTTGG | 0.191
AGCTCAGG | -0.00046
CATCCAGG | -0.088
GGAACCAC | -0.0152
AGCGTATA | 0.0836
AAGCCGGC | -0.221
CACTATAA | 0.167
ATATACTC | 0.197
AGCAATTG | 0.025
ACGCAGCT | -0.095
GCGGTCTA | -0.0156

Sequence | PBM E-score
CCAAGGTC | -0.0654
AACGTTCA | -0.15
GGTAGGAA | 0.0614
ATCAAAAT | 0.159
CATGCGTA | 0.125
AGGGCATC | -0.156
AATACTAA | 0.247
TGCACGCA | -0.0498
CCAAGAAA | 0.167
CCGTCGCC | -0.247
ACGGACTA | 0.00803
GGTGAATA | 0.127
AAACAGAC | 0.091
ATCTGATC | 0.0616
CGCTTAAG | -0.101
TAACCGAA | -0.0314
CGATTCTA | 0.0437
CTGCCAAA | -0.00656
CTACCGCC | -0.149
AGTCCACT | -0.0622
AAGAAGGT | 0.0392
AAAAGTCC | 0.138
AAGAACGG | -0.182
AGAAGGCC | -0.018
AAGTCATC | -0.154

Sequence | PBM E-score
AGACCAAG | 0.152
ACCGGTAC | -0.199
GAATGCAA | 0.153
TGGAGGAA | 0.102
CGATAAGC | -0.167
AGATAGGG | -0.205
GAAAATGA | 0.085
AATAATGA | 0.247
ATGCGAAT | 0.105
CCTTAGCC | -0.172
TCTAAAGA | 0.0913
ACGGGCAC | -0.232
CCAGTCAA | -0.0612
AACGGATA | 0.227
ACTCCGGA | 0.249
AACCTTAT | 0.0299
AATAGATC | 0.251
CGCGAGGC | -0.0897
AGAGCAAG | 0.124
ACACGAGT | -0.135
GGCCACCA | -0.11
CGTCCATA | -0.042
